Screen size: about 4,800 compounds; about 410 (8.5%) showed an effect of 50% or more. The list shows a part of the results.
system: Plasmodium falciparum; experiment: Confirmatory screen in NF54 pLDH assay, in single point, at 2uM, 72h; format: functional, Erythrocyte; details: timepoint 72 hour

Compound | % Inhibition
Cc1cc2sc(-c3ccccc3)c([O-])[n+]2cn1 | 10%
Cc1ccnc(N[C@H](c2cccs2)c2cc(C)sc2NC(=O)c2ccccc2)c1 | 11%
CNC(=O)[C@H]1CN(S(=O)(=O)c2cccs2)CC12CCCCC2 | -30%
Cc1cc(NC(=O)Cn2c(=O)n(CC(C)C)c(=O)c3sccc32)no1 | -24%
O=C(NCCCn1cccn1)c1cncc(Br)c1 | -3%
CN(C)c1noc(CN2CCc3ccc(F)cc3C2)n1 | 41%
CC[C@H]1Cn2c(C(=O)NC3CCCCC3)cc3c(Cl)ccc(c32)O1 | -2%
CC1(C)CC[C@H](CNC(=O)c2cnn(-c3ccc(F)cc3)n2)O1 | 9%
CCOCCCNC(=O)c1ccc(-c2ccc3c(c2)CCN3C(C)=O)cc1 | 12%
CCn1nccc1CN(CCc1ccc(OC)c(OC)c1)S(=O)(=O)c1cnn(CC)c1C | 2%
COc1cccc(CNCCCN2CCOCC2)c1OCc1ccc(F)cc1Cl | 1%
Cc1cc(Cl)c2c(c1)C1(NC(CCC(=O)O)[C@H]3C(=O)N(C4CCCCC4)C(=O)[C@H]31)C(=O)N2 (stereo partly drawn) | -10%
Cc1ccc(Cn2ccnc2C(=O)Nc2ccccc2)cc1 | -12%
COc1nccnc1N(C(C)=O)S(=O)(=O)c1ccc(NC(C)=O)cc1 | -4%
O=C(NCCc1cccnc1)OCC(F)(F)F | -19%
NC(=O)c1ccc(NC(=O)N2CCC[C@H](c3cc(F)ccc3F)C2)cc1F | -16%
COc1ccc(-c2[nH]ncc2C(=O)NCC2CCCCC2)cc1OC | 6%
Cc1ccc(Cc2nc(N3CCCN(C(=O)c4ccc(C)cc4)CC3)c3cnn(-c4ccccc4)c3n2)cc1 | 11%
CCc1cc(N2CC[C@H]3[C@H](CCC(=O)N3CCCCO)C2)nc(C)n1 | -10%
COc1ccc(NC(=O)CCC(=O)NCc2ccco2)cc1 | 15%
CC(C)(C)OC(=O)N1CCCC(C(O)C(F)(F)F)C1 (stereo not drawn) | 9%
CCOC(=O)c1c[nH]c2c(-c3ccccc3)nsc2c1=O | 3%
CN1c2cc(C(=O)N3CCN(c4ccccc4Cl)CC3)ccc2C(=O)N2CCCC[C@H]21 | 5%
CC1(C)C(=O)NCCN1C(=O)c1ccc2nccnc2c1 | 9%
COc1cc([C@@H]2C=C(c3ccc(Cl)cc3)Nc3ncnn32)ccc1OCc1ccc(Cl)cc1 | 4%
CC(=O)N(CCN1CCOCC1)[C@H]1CCN(S(=O)(=O)c2cccc(Cl)c2)C1 | 9%
Clc1cccc(N2CCN(Cc3ccc(OC4CCNCC4)cc3)CC2)c1 | 14%
Cc1cc(Br)cc(N[C@H](c2cccnc2)c2ncc[nH]2)c1 | 6%

Source: ChEMBL document CHEMBL4888484, “Replenishing the malaria drug discovery pipeline: Screening and hit evaluation of the MMV Hit Generation Library 1 (HGL1) against asexual blood stage Plasmodium falciparum ,using a nano luciferase reporter read-out” (2022)
